Test results reported in the supplement of paper PMC11417369.
± gives the standard deviation of the averaged measurements. This is one part of the list.

System: PfAP2-I AP2 domain 3 (GST-tagged)
Experiment: gcPBM binding intensity (ln(normalized median fluorescence intensity)); higher = stronger DNA binding
Procedure, shortened: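 GST-tagged P. falciparum DNA-binding domains, expressed in E. coli (about 25 μg on average), were applied for 1 h to an Agilent 4 × 180k array of primer-extended double-stranded 36-bp intergenic genomic probes plus negative controls. The binding buffer was 1× PBS with 1% milk, 0.2 mg/ml BSA, 0.5% salmon testes DNA and 0.03% Triton X-100. Bound protein was detected with Alexa488 anti-GST antibody and scanned at 488 nm. Binding intensity is the highest Masliner-normalised natural-log median intensity across replicate spots of either probe orientation.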

| Sequence | gcPBM binding intensity (ln) |
| --- | --- |
| CTAGCAAATACATACACACACACACCCATACATATA [CACACA_site3496] | 8.07 ± 0.38 |
| ACAACAATATGGAATTGTACATATATATATAAATAT [XGTACX_site3139] | 7.75 ± 0.46 |
| GAACAAATAAAAAGGAGTACAATCAAATCTACGTAT [XGTACX_site343] | 8.06 ± 0.26 |
| TACACAAAACATAAAAGTACATAATAATAAAGTTAA [XGTACX_site8872] | 7.74 ± 0.61 |
| AGGAATAAATAATTAACACACACAATCTTTTTTTTT [CACACA_site9027] | 7.6 ± 0.54 |
| TAATAAGTATAAAATAGTACATATAAATATATCAAA [XGTACX_site8834] | 7.67 ± 0.5 |
| AAATAAAAAAACTATTGTACTGAATACAAATTAAAT [XGTACX_site3793] | 7.53 ± 0.41 |
| ATAATATTAGTAAACACACTCAAATTATATATGATA [CACACA_site5721] | 7.54 ± 0.49 |
| ACTTTTTCACATAAAAATGATCCGATTAGTAATAAT [XGTACX_negctrl_site248] | 7.76 ± 0.62 |
| AGTATACATTCATTTTGTACTCAATGATTTGATAAC [XGTACX_site6787] | 7.63 ± 0.42 |
| ATAATTATATTCCATACACACATATATTTAAAGGTT [CACACA_site2957] | 7.95 ± 0.54 |
| CATTTTTTAAGCATCACACACGAAAGAACAAAGTGG [CACACA_site4755] | 8.21 ± 0.53 |
| TGGAAAATTATAAGGTGTACATATAAGCTATTATAT [XGTACX_site118] | 7.76 ± 0.47 |
| TTTTTTTTTTTAAGGTGTACAATAAAAATTTATGCA [XGTACX_site8860] | 8.39 ± 0.49 |
| CATATATAAAATATATGTACTTATAGAACATAATTT [XGTACX_site1936] | 7.3 ± 0.35 |
| TGGTGTTTTTTTTAATGTACTTATAAAATAATACAT [XGTACX_site6574] | 8 ± 0.45 |
| TTTTTTTTACATGAACGTACATAATATATTTTATAA [XGTACX_site5249] | 7.95 ± 0.33 |
| ATGTAAAAATAAAGATGTACATGTATATATATATAT [XGTACX_site5193] | 9.18 ± 0.55 |
| CCTATAATTAGGGGTAGTACACAAAAAAAAAAAAAA [XGTACX_site6396] | 8.15 ± 0.3 |
| AATATATATTCATGTGTACACACAAAAAAAAATAAA [CACACA_site8690] | 8.445 ± 0.007 |
| AATTCCTTATACAATTGTACATAAAAAGAATAAAAA [XGTACX_site1343] | 8.06 ± 0.25 |
| TTAAAAAAGAATTGTGCACACACAAAAAATGTTCAT [CACACA_site1102] | 10.3 ± 0.14 |

| Sequence | gcPBM binding intensity (ln) |
| --- | --- |
| ATCAAACAAAAAATAAAAAAATGCGACATGTGTACA [TGCATGCA_negctrl_site164] | 7.83 ± 0.64 |
| CAAGGACAATTTACAAACATAATATATGTATATATA [TGCATGCA_negctrl_site5] | 7.34 ± 0.35 |
| TTGAATACATATATATGTACATATTCTATGGTTAGA [XGTACX_site4088] | 7.57 ± 0.4 |
| TTAATATTTTTAATTTGTACATATAATTAAATCTCT [XGTACX_site1736] | 7.68 ± 0.49 |
| GAAAATTATGTATATTGTACAAATATTATATTAAAT [XGTACX_site2467] | 7.75 ± 0.5 |
| TATAAAATTTAAATTATACACACTTAAGTAACATCA [CACACA_site531] | 7.82 ± 0.54 |
| CTGAGGAAGCTAATTACACACATGCATATTTTTTTT [CACACA_site2177] | 8.16 ± 0.86 |
| ATTATCTTCAAGTATGTACACACTATATATAATAAA [CACACA_site2441] | 8.06 ± 0.36 |
| AAATTATAATTAGGAACACACATATATATATATATA [CACACA_site3098] | 9.34 ± 0.25 |
| TACATGTATAATATAATACACACTATATAATATACA [CACACA_site2239] | 7.8 ± 0.35 |
| TACATACATACATACATACACACATATATATATATA [CACACA_site1996] | 9.485 ± 0.021 |
| AAAAAGAAGATGCAAACATGCACACAGAAAAAAAAA [TGCATGCA_site375] | 8.38 ± 0.82 |
| CTATTATAAAAATGATGTACACTTATATATACATAT [XGTACX_site6087] | 7.78 ± 0.45 |
| TTTTTTTTTTGAATATGTACTTAAAAAAATTTTTTT [XGTACX_site3851] | 7.89 ± 0.45 |
| TTTTCATTCCACAACGCACACCCATTTAAAAAAAAA [CACACA_site1377] | 9.52 ± 0.28 |
| TAATTTTTTTTTTTTTTTTTTTTTTTTTTTTTTTTA [CACACA_negctrl_site1218] | 7.49 ± 0.3 |
| AAAAAAAAAAAAATTACACACATACAGATAATAATA [CACACA_site5244] | 7.71 ± 0.21 |
| ATAACATGAACATATGTTACACAAACATACATACAT [XGTACX_negctrl_site365] | 8.27 ± 0.92 |
| AAAAAATATTTTAGTGGTACATTTGTAGCTCTCAAA [XGTACX_site4859] | 7.74 ± 0.47 |
| AATCAAATATTTAAATGTACTCAAGAAGGCTTAATC [XGTACX_site6907] | 7.69 ± 0.52 |
| GAAAAAAAAAAAAAAAAACACACGGTACATTCAAAG [CACACA_site303] | 7.63 ± 0.79 |
| AAAAATATAATATAATGTACACAAAAAAAAAAAATC [XGTACX_site1427] | 7.93 ± 0.52 |
